Experimental data as given in article PMC9911399, “Two distinct binding modes provide the RNA-binding protein RbFox with extraordinary sequence specificity”.
Numbering of substitutions follows the chain as printed; changes in the protein carry UniProt numbers. Some of the results follow.

T1: RBFOX1 RRM RbFoxmut (Fox-RRM*) (Homo sapiens, UniProt Q9NWB1 109-208, R118D;E147R;N151S;E152T)
T1 sequence: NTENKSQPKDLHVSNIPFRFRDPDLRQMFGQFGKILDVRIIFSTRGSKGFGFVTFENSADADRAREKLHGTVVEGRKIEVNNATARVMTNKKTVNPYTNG

B1: GGGCAAU (DNA:RNA)
RNA: GGGAGACCGGAAUUCAGAUUGUCCGGGCAAUUUAAAUCCCGUCGUAGCCACCA
DNA 1: CAATCTGAATTCCGGTCTCCC
DNA 2: TGGTGGCTACGACGGGATT
B2: CGUCUCU (DNA:RNA)
RNA: B1 RNA with G25C, G27U, A29U, A30C
DNA 1: CAATCTGAATTCCGGTCTCCC
DNA 2: TGGTGGCTACGACGGGATT
B3: UCAUCUU (DNA:RNA)
RNA: B1 RNA with G25U, G26C, G27A, C28U, A29C, A30U
DNA 1: CAATCTGAATTCCGGTCTCCC
DNA 2: TGGTGGCTACGACGGGATT
B4: UUGCUCA (DNA:RNA)
RNA: B1 RNA with G25U, G26U, A29U, A30C, U31A
DNA 1: CAATCTGAATTCCGGTCTCCC
DNA 2: TGGTGGCTACGACGGGATT
B5: CGUUAUU (DNA:RNA)
RNA: B1 RNA with G25C, G27U, C28U, A30U
DNA 1: CAATCTGAATTCCGGTCTCCC
DNA 2: TGGTGGCTACGACGGGATT
B6: AAUAAGA (DNA:RNA)
RNA: B1 RNA with G25A, G26A, G27U, C28A, A30G, U31A
DNA 1: CAATCTGAATTCCGGTCTCCC
DNA 2: TGGTGGCTACGACGGGATT
B7: UCCAUUA (DNA:RNA)
RNA: GGGAGACCGGAAUUCAGAUUGUCCUCCAUUAUUAAAUCCCGUCGUAGCCACCA
DNA 1: CAATCTGAATTCCGGTCTCCC
DNA 2: TGGTGGCTACGACGGGATT
B8: CCGUGAA (DNA:RNA)
RNA: B1 RNA with G25C, G26C, C28U, A29G, U31A
DNA 1: CAATCTGAATTCCGGTCTCCC
DNA 2: TGGTGGCTACGACGGGATT
B9: ACCCUUA (DNA:RNA)
RNA: B7 RNA with U25A, A28C
DNA 1: CAATCTGAATTCCGGTCTCCC
DNA 2: TGGTGGCTACGACGGGATT

Target: T1, RBFOX1 RRM RbFoxmut (Fox-RRM*)
Assay: EMSA; HiTS-Eq, 1 nM pool, 10 min; buffer printed only for the single-RNA assays: 10 mM Tris pH 7.5, 150 mM NaCl, 3.4 mM EDTA, 0.001% NP-40, 30 C
Conditions: tags: His6 N-terminal (pET28a); label: 5' 32P
Method in brief: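 A pool of RNA with 7 randomized nucleotides, 5′-radiolabelled and with DNA-annealed flanks, was equilibrated at 1 nM for 10 min in 50 µL with purified RbFox RRM, wild type or mutant, across increasing protein concentrations. Free RNA was separated by 8% native PAGE, excised, reverse-transcribed, barcoded by PCR and sequenced. Relative association constants were obtained from read-count changes of each RNA species versus the control reaction and normalised to the cognate motif.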

Binder	binding signal
B1	0.0601 KA relative to UGCAUGU
B2	0.0521 KA relative to UGCAUGU
B3	0.0764 KA relative to UGCAUGU
B4	0.105 KA relative to UGCAUGU
B5	0.116 KA relative to UGCAUGU
B6	0.0558 KA relative to UGCAUGU
B7	0.0895 KA relative to UGCAUGU
B8	0.0944 KA relative to UGCAUGU
B9	0.133 KA relative to UGCAUGU
